# Source: the supplement of paper PMC4723716
# ± gives the uncertainty stated by the source. In all, about 9,900 compounds were measured (“viability index relative to DMSO control”: median about 1, lowest 2% from about 0.85 on). Some of the results follow.
# Tested on: Plasmodium falciparum NF54 stage V gametocytes
# Test: viability index relative to DMSO control (fraction); higher = less gametocyte killing
# Conditions: 2.5 µM, library set: Broad Institute DOS, incubation time: 72 h
# Outline: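 Gametocytes (P. falciparum NF54, stage V) were treated with compound at 2.5 µM for 72 hr at 37°C in low oxygen, in serum-free medium at 0.75% gametocytemia and 1.25% hematocrit. Counts of 20–70 µm2 red particles, taken from one field per well after MitoTracker Red CMXRos with saponin, were divided by the plate mean of solvent-only wells. This ratio is the viability index.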
row,Structure (SMILES),viability index
1,O=C(C[C@H]1C=C[C@H](NC(=O)c2cnccn2)[C@@H](CO)O1)NCc1ccccc1F,1.16 ± 0.056
2,C[C@@H]1CN([C@@H](C)CO)C(=O)c2cc(NS(=O)(=O)c3ccc(F)cc3)ccc2O[C@H]1CN(C)C(=O)Nc1ccccc1,1 ± 0.14
3,CN(C)C(=O)c1cccc(-c2ccc3c(c2)[C@@H]2[C@@H](CCN2C(=O)c2cnccn2)[C@H](CO)N3)c1,1.17 ± 0.072
4,C[C@H](NC(=O)C[C@@H]1C=C[C@H](NC(=O)c2cccnc2)[C@H](CO)O1)c1ccccc1,1.11 ± 0.077
5,CO[C@H]1CN(C)C(=O)c2cc(NC(=O)NC3CCCCC3)ccc2OC[C@@H](C)N(CC2CCOCC2)C[C@H]1C,1.099 ± 0.0089
6,COc1cccc(-c2ccc([C@H]3[C@H]4CNCC(=O)N4[C@H]3CO)cc2)c1,0.999 ± 0.084
7,COc1ccc(S(=O)(=O)Nc2ccc3c(c2)C(=O)N([C@@H](C)CO)C[C@H](C)[C@@H](CN(C)S(=O)(=O)c2ccc(Cl)cc2)OCCCC[C@H](C)O3)cc1,0.944 ± 0.018
8,O=C(C[C@H]1CC[C@@H]2[C@H](COC[C@@H](O)CN2Cc2ccc(Oc3ccccc3)cc2)O1)N1CCN(c2ccccc2)CC1,1.06 ± 0.068
9,O=C(Nc1ccccc1F)N1CCCCN2[C@H](CO)[C@@H](c3ccc(/C=C/c4ccccc4)cc3)[C@H]2C1,0.859 ± 0.037
10,CCC(=O)N1C[C@]2(CCN(Cc3ccc(Cl)cc3)CC2)c2c([C@H]1CO)n(C)c1cc(OC)ccc21,0.983 ± 0.091
11,C[C@@H]1CN([C@H](C)CO)C(=O)c2cc(NC(=O)Nc3cccc4ccccc34)ccc2O[C@@H](C)CCCCO[C@H]1CN(C)S(=O)(=O)c1cn(C)cn1,1.04 ± 0.11
12,CN(C)C(=O)c1ccc(-c2ccc([C@@H]3[C@H]4CNC[C@@H]3N4C(=O)Nc3cc(F)ccc3F)cc2)cc1,1.11 ± 0.073
13,C[C@@H]1CCCCO[C@H](CN(C)Cc2ccc(C(=O)O)cc2)[C@@H](C)CN([C@@H](C)CO)C(=O)c2cc(N(C)C)ccc2O1,1.07 ± 0.11
14,O=C(C[C@H]1CC[C@H]2[C@@H](COC[C@@H](O)CN2Cc2ccc(F)cc2)O1)NCCc1ccccc1,1.04 ± 0.062
15,CN(C)CC(=O)N1[C@H](C#N)[C@@H](c2ccc(-c3cccc(C(=O)N(C)C)c3)cc2)[C@H]1CO,1.06 ± 0.053
16,CN1C(=O)c2cc(NS(C)(=O)=O)ccc2OC[C@@H]2O[C@@H](CC(=O)N3CCOCC3)CC[C@H]21,1.06 ± 0.025
17,O=S(=O)(c1ccc(-c2ccccc2)cc1)N1C[C@@H]2N[C@H](C1)[C@@H]2c1ccc(-c2ccncc2)cc1,1.072 ± 0.0057
18,C[C@@H]1CN([C@H](C)CO)C(=O)c2ccccc2-c2ccccc2CO[C@@H]1CN(C)C(=O)Nc1cccc(C(F)(F)F)c1,0.9998 ± 0.0068
19,O=C(Nc1ccccc1)[C@H]1[C@H](CO)[C@H]2Cn3c(ccc(C4=CCCCC4)c3=O)[C@H]2N1Cc1cocn1,1.05 ± 0.012
20,COc1ccccc1-c1ccc2c(c1)[C@H]1[C@H](CCN1C(=O)C1CCC1)[C@@H](CO)N2,0.865 ± 0.097
21,C/C=C/c1ccc([C@H]2[C@@H](CO)N3C(=O)CN(S(=O)(=O)c4ccccc4)C[C@H]23)cc1,0.975 ± 0.12
22,C[C@@H]1CN([C@@H](C)CO)C(=O)CCCn2nncc2CO[C@H]1CN(C)Cc1ccc2c(c1)OCCN2C,0.967 ± 0.0097

row,Structure (SMILES),viability index
1,CCCNC(=O)N1CC2(C1)[C@H](c1ccccc1)[C@H](CO)N2C(=O)c1cccnc1,1.08 ± 0.065
2,CC(C)NC(=O)Nc1cccc2c1O[C@H](CN(C)C(=O)Nc1ccccc1)[C@@H](C)CN([C@@H](C)CO)C2=O,1.09 ± 0.07
3,CN1C(=O)c2cc(NC(=O)Cc3cccs3)ccc2OC[C@H]2O[C@H](CC(=O)NCCCN3CCOCC3)CC[C@H]21,1.11 ± 0.039
4,N#C[C@@H]1[C@@H](c2ccccc2-c2ccccc2F)[C@H](CO)N1C(=O)C1CCC1,1.18 ± 0.055
5,COCC(=O)N1C[C@]2(CCN(Cc3cccnc3)CC2)c2c([C@@H]1CO)n(C)c1cc(OC)ccc21,1.07 ± 0.069
6,COc1ccc2c3c([nH]c2c1)[C@H](CO)NC[C@]31CCN(CC1)C(=O)C1CCOCC1,0.98 ± 0.08
7,C[C@H]1CN([C@@H](C)CO)C(=O)c2cccc(NS(=O)(=O)c3ccc(F)cc3)c2O[C@@H]1CN(C)Cc1ccc(Cl)c(Cl)c1,1.05 ± 0.019
8,COc1ccccc1NC(=O)N1C[C@H]2[C@@H](c3ccccc31)[C@@H](CO)N2Cc1ccc2c(c1)OCO2,1.02 ± 0.048
9,Fc1ccccc1CN1[C@@H]2CNC[C@H]1[C@H]2c1ccc(-c2ccccc2)cc1,1.1 ± 0.044
10,C/C=C/c1ccccc1[C@H]1[C@@H](C#N)N(C(=O)NC2CCCCC2)[C@H]1CO,1.11 ± 0.092
11,COc1ccccc1-c1ccc2n(c1=O)C[C@H]1[C@H](CO)[C@@H](C(=O)N3CCOCC3)[C@@H]2N1CC1CC1,1.09 ± 0.03
12,CCC(=O)N1C[C@@H](C)[C@@H](OC)CN(C)C(=O)c2cc(NC(=O)Nc3ccc(Cl)cc3)ccc2OC[C@H]1C,1.03 ± 0.065
13,C[C@@H]1C(=O)N[C@H](c2ccccc2)C/C=C/C[C@H](C)Oc2ccccc2C(=O)N1C.C[C@@H]1C(=O)N[C@H](c2ccccc2)C/C=C\C[C@H](C)Oc2ccccc2C(=O)N1C,1.01 ± 0.044
14,O=C1[C@H](Cc2ccc(F)cc2)CCn2cc(nn2)COC[C@H]2CCCN12,0.995 ± 0.016
15,CN1C(=O)c2cc(NC(=O)Nc3ccc(Cl)cc3)ccc2OC[C@H]2O[C@@H](CC(=O)NCCN3CCCCC3)CC[C@@H]21,0.994 ± 0.088
16,Cc1cccc(S(=O)(=O)N2C[C@@H]3[C@H](c4ccccc42)[C@H](CO)N3CC2CCCC2)c1,0.949 ± 0.011
17,COCCNC(=O)C[C@@H]1C[C@@H]2c3cc(NC(=O)CN(C)C)ccc3O[C@@H]2[C@@H](CO)O1,1.06 ± 0.061
18,COc1ccc(C[C@H]2CCn3cc(nn3)COC[C@H](c3ccccc3)NC2=O)cc1,1.1 ± 0.046
19,CCC(=O)Nc1ccc2c(c1)C(=O)N(C)C[C@@H](OC)[C@H](C)CN(Cc1nccs1)[C@@H](C)CO2,1.16 ± 0.079
20,CCS(=O)(=O)Nc1ccc2c(c1)C(=O)N(C)[C@H]1CC[C@H](CC(=O)N[C@H]3CCN(Cc4ccccc4)C3)O[C@@H]1CO2,1.131 ± 0.0043
21,COc1cccc(CN2C[C@]3(CN(CC4CCOCC4)C3)c3c([nH]c4cc(OC)ccc34)[C@@H]2CO)c1,0.937 ± 0.035
22,CN(C)C(=O)c1ccc(-c2ccc([C@H]3[C@@H]4CNC[C@H]3N4)cc2)cc1,1.1171 ± 0.00098
